PubChem BioAssay AID488969 (Vanderbilt High Throughput Screening Facility, 2010)
In all, about 110,000 compounds were measured (“z-score”: median about -0.1, highest 2% from about 2 on). The list shows a part of the results.

Each compound was assayed against Metabotropic glutamate receptor 8 (Rattus norvegicus) (UniProt P70579) (assay: mGluR8 Gi/Go-coupled signaling modulation – cell-based, rat, thallium flux, HTS, primary screen (AID 488969)). Settings: HEK293 rat mGluR8, GIRK (G protein-gated inwardly rectifying potassium channel) thallium flux, FluoZin2; at 10 µM; stronger effect = higher value; submaximal glutamate (EC20) added with thallium.
UniProt P70579, sequence (P70579 whole entry, looked up): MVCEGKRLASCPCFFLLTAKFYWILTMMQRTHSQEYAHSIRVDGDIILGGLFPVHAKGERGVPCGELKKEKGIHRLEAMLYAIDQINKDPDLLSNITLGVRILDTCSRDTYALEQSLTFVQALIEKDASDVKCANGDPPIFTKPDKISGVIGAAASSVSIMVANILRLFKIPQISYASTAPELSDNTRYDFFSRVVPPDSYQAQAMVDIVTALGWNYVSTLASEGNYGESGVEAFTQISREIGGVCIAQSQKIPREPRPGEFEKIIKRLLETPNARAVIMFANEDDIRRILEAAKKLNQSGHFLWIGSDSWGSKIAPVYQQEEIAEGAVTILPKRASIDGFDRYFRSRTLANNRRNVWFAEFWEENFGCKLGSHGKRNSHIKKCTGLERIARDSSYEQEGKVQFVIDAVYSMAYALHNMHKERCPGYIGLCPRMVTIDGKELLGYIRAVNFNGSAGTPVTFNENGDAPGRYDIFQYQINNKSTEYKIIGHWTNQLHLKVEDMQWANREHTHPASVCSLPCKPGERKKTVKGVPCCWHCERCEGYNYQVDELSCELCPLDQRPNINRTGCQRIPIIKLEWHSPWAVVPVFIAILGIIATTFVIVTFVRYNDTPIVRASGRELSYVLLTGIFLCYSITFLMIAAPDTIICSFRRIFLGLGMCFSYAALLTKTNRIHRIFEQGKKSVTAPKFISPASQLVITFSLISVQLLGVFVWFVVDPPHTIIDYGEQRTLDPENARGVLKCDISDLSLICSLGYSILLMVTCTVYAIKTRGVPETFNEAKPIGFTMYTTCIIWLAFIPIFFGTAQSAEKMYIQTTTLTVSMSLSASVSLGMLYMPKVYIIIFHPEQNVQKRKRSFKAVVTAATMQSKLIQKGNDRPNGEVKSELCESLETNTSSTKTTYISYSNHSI

Point of comparison: `COc1ccc(CC(=O)n2c(CC#N)nc3ccccc32)cc1OC`, z-score 0.0175. Against it:
- Cc1cc(NC(=O)c2cc(S(=O)(=O)N3CCCCC3)ccc2C)n(-c2ccccn2)n1 — lower, -0.277
- C=CCn1c(SCc2nc(N)nc(N(C)C)n2)nnc1-c1cccnc1 — lower, -0.0663
- Cc1ccc(CSc2ncnc3c2cnn3-c2ccccc2)cc1 — higher, 0.333
- CS(=O)(=O)N(CC(=O)Nc1ccc2c(c1)OCO2)Cc1ccccc1 — higher, 0.302
- CCOc1cc(NC(=S)Nc2ccccc2)c(OCC)cc1NC(=O)c1ccc(OC)cc1 — lower, -0.0189
- COCCn1nnnc1CN(CCc1ccccc1)Cc1cc2ccc(C)cc2[nH]c1=O — lower, -0.49
- Cc1nnsc1C(=O)Nc1ccccc1 — lower, -0.129
- Cc1onc(-c2ccccc2)c1C(=O)N/N=C(\N)COc1ccc(Cl)cc1 — lower, -0.0322
- COc1ccc(CCCc2nnc(SCC(=O)Nc3nccs3)n2C)cc1C — lower, -0.262
- O=C(Nc1ccc(F)cc1)c1oc2ccccc2c1NC(=O)C1CCCC1 — higher, 0.116
- CCOc1ccc(NC2c3ccccc3C(=O)N2Cc2ccco2)cc1 (stereo not given) — lower, -1.26
- COc1ccc(CCNC(=O)C(=O)NCC2CCCO2)cc1 (stereo not given) — lower, -0.148
- COc1ccc(N(CC(=O)NCc2ccccc2)S(=O)(=O)c2c(C)nn(C)c2C)cc1 — lower, -0.684
- CCNc1nc(NC(C)C)nc(N(C#N)CCOc2ccccc2)n1 — lower, -1.35
- COC(=O)COc1ccccc1C(=O)Nc1ccc(OC)cc1 — lower, -0.266
- CNC(=O)Nc1ccc2snnc2c1 — higher, 0.0826
- CC1CN(C(=O)c2ccccc2NS(=O)(=O)c2cccc([N+](=O)[O-])c2)CC(C)O1 (stereo not given) — higher, 0.672
- Cc1ccc(CC2C(=O)N(CC(=O)O)C(=O)C2C)cc1 (stereo not given) — lower, -0.277
- Clc1ccc(-c2csc(N/N=C/c3ccc4c(c3)OCO4)n2)cc1 — lower, -0.152
- Cc1ccc(C)n1-c1sccc1C(=O)O — higher, 0.121
- NC(=O)c1ccsc1NC(=O)CSc1ccccc1F — higher, 0.571
- CC1CCCCN1C(=S)NCc1ccccc1 (stereo not given) — lower, -0.00966
- CN(C)C(=O)Cn1c(SCC(=O)Nc2ccc3c(c2)OCO3)nc2ccccc21 — lower, -0.277
- N#Cc1cc2ccccc2nc1SCC(=O)Nc1ccccc1N1CCOCC1 — higher, 0.286
- Cc1ccc(C(=O)N[C@H](C(=O)OCc2cc(=O)oc3cc(C)ccc23)C(C)C)cc1 — lower, -0.0948
- O=S(=O)(c1ccc(S(=O)(=O)N2CCCC2)cc1)N1CCCCCC1 — higher, 0.224
- O=C(COC(=O)/C=C/c1cccc(C(F)(F)F)c1)Nc1cccc2ccccc12 — lower, -0.0579
- CC(C)N(Cc1nc(-c2ccccc2)no1)C(=O)COc1ccccc1 — lower, -0.0374
- CCOc1ccc(Oc2ccc(-c3nnc(-c4ccccc4)o3)cc2[N+](=O)[O-])cc1 — higher, 0.352
- CN(C1=C(N2CCCCC2)C(=O)c2ccccc2C1=O)c1ccccc1 — lower, -0.138
- CN(C)/C(=N\OC(=O)c1ccccc1)c1nonc1N — lower, -0.235
- Cn1c(SCC(=O)c2ccc3c(c2)OCCO3)nnc1C1CC1 — lower, -0.0904
- Nc1ccccc1Nc1cc(-c2ccccc2)nn1-c1ccccc1 — lower, -0.185
- N#C/C(=C\c1cn(CC(=O)N2CCCCC2)c2ccccc12)C(=O)NCc1ccc2c(c1)OCO2 — lower, -0.175
- COC(=O)c1c(NC(=O)c2c(-c3ccccc3Cl)noc2C)sc2c1CCC2 — lower, -0.159
- Cc1ccccc1OCCCCn1cnc2ccccc21 — lower, -0.53
- OCCN1CCN(C(=S)c2ccc(Cl)c(Cl)c2)CC1 — higher, 0.482
- CC1CCN(C(=O)Cn2cc(C(=O)C3CC3)c3ccccc32)CC1 — higher, 1.02
- Nc1ccccc1-c1nnn(CC(=O)N2CCCc3ccccc32)n1 — lower, -0.663
- CCCCC(=O)Nc1ccc(NC(=O)C2CC2)cn1 — higher, 0.324
- Cc1ccc(Nc2nnc(SC(C)C(=O)Nc3c(C)n(C)n(-c4ccccc4)c3=O)s2)cc1 (stereo not given) — lower, -0.358
- CCN=C1S/C(=C\c2cn(CC)c3ccccc23)C(=O)N1CC — higher, 0.0534
- O=C1c2ccc(-c3nc4ccccc4o3)cc2C(=O)N1Cc1cccnc1 — higher, 0.256
- CN=C1SC(CC(=O)Nc2sc3c(c2C#N)CCCC3)C(=O)N1C (stereo not given) — lower, -0.258
- CSc1nc(-c2ccccc2)nc(SC)c1C(C)=O — lower, -0.493
- CCOC(=O)CSc1nc(-c2ccncc2)ccc1C#N — lower, -0.506
- CCc1nnc(NS(=O)(=O)c2ccc(N3C(=O)C4CC=C(Cl)CC4C3=O)cc2)s1 (stereo not given) — higher, 0.798
- O=C(OCCN1CCCCC1)c1cc2ccccc2o1 — lower, -0.063
- CCNC(=O)NC(=O)C(C)OC(=O)CCCSc1nc2ccccc2s1 (stereo not given) — higher, 0.637
- O=C1C(Cc2ccccc2)C(c2ccccc2)N1c1ccccc1 (stereo not given) — higher, 0.0188
- Cc1c(Oc2ccc(C(F)(F)F)cc2[N+](=O)[O-])ccc2c3c(c(=O)oc12)CCC3 — lower, -0.0741
- O=C(CN1CC(c2ccccc2)CC1=O)N/N=C/c1cc(Br)ccc1O (stereo not given) — lower, -0.0975
- O=[N+]([O-])c1ccccc1-c1cc(-c2cc(Cl)ccc2O)n[nH]1 — lower, -0.0283
- CC(=O)N(/N=C1\Sc2ccccc2C1=O)c1ccccc1C — lower, -0.0744
- CCOc1cc(C(=S)N2CCOCC2)ccc1OS(=O)(=O)c1ccc(NC(C)=O)cc1 — lower, -0.00944
- COC(=O)C1=C(C)N(C)C(C)=C(C(=O)OC)C1c1cccc(Br)c1 — lower, -0.431
- COc1ccc(CNc2nc(-c3ccccc3)nn2C(=O)c2ccc([N+](=O)[O-])cc2)cc1 — lower, -0.158
- O=C(Nc1nc(-c2ccc(S(=O)(=O)N3CCOCC3)cc2)cs1)c1ccccc1 — higher, 0.152
- O=C(N/N=C/C=C/c1ccccc1)C(O)c1ccccc1 (stereo not given) — lower, -0.147
- Cc1cc(=O)oc2c(N)c(O)ccc12 — lower, -0.00626
- CC(C)OC(=O)c1cc2c(ccn2C)n1CC(=O)N1CCC(Cc2ccccc2)CC1 — lower, -1.05
- CN(C)CCN1C(=O)c2oc3ccc(F)cc3c(=O)c2C1c1ccncc1 (stereo not given) — lower, -0.265
- CN(C)CCN1C(=O)C(O)=C(C(=O)c2cc3ccccc3o2)C1c1cccc(Br)c1 (stereo not given) — lower, -0.703
- CC1Nc2nc(N(C)C)[nH]c(=O)c2NC1C (stereo not given) — higher, 0.838
- N#Cc1ccc(Oc2cc(C(F)(F)F)nc(-c3ccccn3)n2)cc1 — lower, -0.415
- CCOC(=O)Cn1c(=O)n(CC(=O)OCC)c2ccccc21 — higher, 0.315
- CCCCCCn1nc(C(=O)Nc2nc3c(s2)CCCC3)c2ccccc2c1=O — higher, 0.294
- O=C(NC1CCCCC1)C(c1ccncc1)N(Cc1ccc2c(c1)OCO2)C(=O)C(F)(F)F (stereo not given) — lower, -0.126
- CC1=C(C(=O)OC2CCCCC2)C(c2ccco2)n2ncnc2N1 (stereo not given) — lower, -2.11
- CCCCNC(=O)CO/N=C(\C)c1cc2ccccc2o1 — higher, 0.924
- COc1ccccc1C1Nc2cccc3cccc(c23)N1 — higher, 0.44
- Cc1cccc(CN2C(=O)N/C(=C/c3cc(C)n(-c4ccccn4)c3C)C2=O)c1 — lower, -0.27
- CC(C)(C)c1ccc(COC(=O)CNC(=O)CNC(=O)Cc2ccccc2)cc1 — lower, -0.047
- O=C(NCC(=O)N1CCC(N2CCCCC2)CC1)C1CCCCC1 — higher, 0.113
- O=C(NCc1ccccc1)C(c1ccc(O)cc1)N(C(=O)Cn1nnc(-c2cccs2)n1)c1ccc2c(c1)OCCO2 (stereo not given) — higher, 0.054
- Cc1sc2nc(CN(Cc3cccs3)C(=O)NC3CCCCC3)[nH]c(=O)c2c1C — lower, -0.862
- CN1CCc2c(c3c(n2C)CCN(C)C3c2ccc(F)cc2)C1c1ccc(F)cc1 (stereo not given) — higher, 0.823
- Cc1cc(C(=O)NCCN2C(=O)S/C(=C\c3cccs3)C2=O)ccc1[N+](=O)[O-] — lower, 0.0116
- O=c1cc(CSc2ccccn2)c2ccccc2[nH]1 — lower, -0.0699
- CCn1nnnc1SCC(=O)N1CCOCC1 — higher, 0.31
- CCOC(=O)C1CCN(C(=O)CCCOc2ccccc2)CC1 — lower, -1.31
- CC1CCN(C(=O)CCNC(=O)Cn2cnc3sc4c(c3c2=O)CCCC4)CC1 — lower, -0.208
- COC1Cc2ccccc2N(C(=O)N2CCN(CCO)CC2)c2ccccc21 (stereo not given) — lower, -0.171
- CCCCn1c(C)cc(/C=C(\C#N)C(=O)O)c1C — lower, -0.222
- Cc1cc(C(=O)CN2C(=O)c3ccccc3S2(=O)=O)c(C)n1-c1ccccc1 — higher, 0.19
- O=C(CCCSc1nc2ccccc2s1)Nc1nccs1 — lower, -0.79
- COc1ccc(NC(=O)C2OC3OC(C)(C)OC3C3OC(C)(C)OC23)cc1 (stereo not given) — lower, -0.0361
- O=C(Nc1ccc(F)cc1)c1cn(-c2ccccc2)nc1-c1ccncc1 — lower, -0.507
- Cn1c(SCC(=O)NC2CCCCC2)nnc1-c1cc2cc(Cl)ccc2o1 — lower, -0.559
- O=C(Nc1ccccc1)c1ccc(CSc2ccccn2)cc1 — lower, -0.0973
- Cc1occc1C(=O)NNC(=O)Nc1ccc(F)cc1F — lower, -0.1
- CN(c1ccccc1)S(=O)(=O)c1ccc(C(=O)Nc2nccs2)cc1 — higher, 0.374
- COc1ccc(N=Cc2ccc(CNS(=O)(=O)c3ccc(Cl)cc3)o2)cc1 — lower, -0.295
- CC(C)C1Cc2c(C#N)c(N)n(C)c(=S)c2CO1 (stereo not given) — lower, -1.22
- O=[N+]([O-])c1ccc(Cl)c(S(=O)(=O)NCC2CCCO2)c1 (stereo not given) — lower, -0.238
- COc1ccc(OC)c(S(=O)(=O)N2CCc3ccccc32)c1 — higher, 0.824
- CCOC(=O)C1CCN(C(=O)CSc2n[nH]c(=O)[nH]c2=O)CC1 — higher, 0.161
- CCCCC(=O)NC(=S)NNC(=O)CC#N — lower, -0.265
- Cc1ccc(NC(=O)c2ccc(OC(=O)C(C)Oc3ccc(Cl)cc3C)cc2)cc1 (stereo not given) — lower, -0.296
- Cc1nc2c(C(=O)N3CCOCC3)cnn2c(C)c1Cc1ccc(Cl)cc1 — lower, -0.24
- Cc1ccc(NC(=O)N(CCCN2CCOCC2)Cc2cccs2)cc1C — lower, -0.357
- CCOC(=O)C1CCN(c2ncnc3c2cnn3-c2ccc(OC)cc2)CC1 — higher, 0.645
- COc1ccc(-n2c(C)cc(/C=C(\C#N)C(=O)NCc3ccco3)c2C)cc1 — lower, -0.393
- Cc1ccc(Sc2nc([N+](=O)[O-])nn2C)cc1 — lower, -0.201
- Cc1ccccc1-c1ccc(Nc2ccc(C(=O)N3CCOCC3)cc2)nn1 — higher, 0.503
- O=C(O)C1CSC2(c3ccc4c(c3)OCCO4)CCC(=O)N12 (stereo not given) — higher, 0.952
- Cc1cccc(-c2c3c(=O)n(C)c(=O)n(C)c3cn2-c2ccc(O)cc2)c1 — lower, -0.937
- Cn1c(COc2ccccc2)nnc1SCC(=O)Nc1ccc(N2CCOCC2)c(Cl)c1 — higher, 0.244
- O=C(NCCc1ccccc1)C(=O)Nc1nccs1 — higher, 0.151
